Data on 92 molecules can be found in PubChem BioAssay AID463173 (ICCB-Longwood Screening Facility, Harvard Medical School, 2010).

Among all 52,000 compounds or so, about 1,700 (3.3%) were called active. Rule as the data show it: active = survival mostly below about 52% (no sharp cut-off); inactive = mostly above about 56%. This is one part of the list.

The test system of this assay is Wild type. The assay can be described thus: S. aureus survival, RN4220 and DeltatarO strains – OD600, teichoic acid synthesis inhibitors, primary screen (AID 463173). To be noted: S. aureus RN4220 wild type/DeltatarO growth, OD600, 18 h, stronger effect = lower value, screened at 18.75 µg/mL (by protocol).
For the molecule `COc1cc(OC)cc(-c2cc3nc(C)c(CCC(=O)NCCc4cccc(C)c4)c(C)n3n2)c1`, the survival is inactive: 92%. In the case of `COc1cc(NC(=O)Cn2nc(C(F)(F)F)c3c2CCC3)cc(OC)c1OC`, the survival is inactive: 131%. The same measure for `CC1CCCN(CCCNC(=O)c2cc(Sc3ccc(F)cc3)nc3ccccc23)C1` (configuration not stated): active: 14%; for `N#Cc1c2c(c(-c3ccccc3)[nH]c1=S)CCCC2`: inactive: 94%; for `Cc1noc(-c2ccc(-c3noc(-c4ccc(F)cc4)n3)cc2)n1`: inactive: 64%. In the case of `COC(=O)/C(C#N)=C/c1ccc(OC)cc1`, the survival is inactive: 105%.

As for `COc1cc(C2Nc3ccccc3-c3cc(C)nn32)ccc1O` (configuration not stated), the survival was inactive: 139%. For `Cc1ccc(NC(=O)Cn2nc(-c3ccccc3)nc(Cc3ccc(Cl)cc3)c2=O)cc1` the value was inactive: 70%.

For `O=C(CCCn1c2ccccc2c(=O)c2ccccc21)Nc1cccc(Cl)c1`, the survival is inactive: 37%. With `CCOC(=O)c1cccc(NC(=O)CCSCCc2ccccn2)c1`, the survival is inactive: 68%. `COc1cccc(CNC(=O)c2cc3c(-c4ccccc4F)nn(C)c3s2)c1`: the survival was inactive: 70%.

Consider `O=S(=O)(c1ccc(Br)s1)N1CCN(c2cccc(C(F)(F)F)c2)CC1`, for which the survival was inactive: 64%. With `Cc1csc2nc(COC(=O)c3ccccc3NC(=O)c3cccc(Br)c3)cc(=O)n12`, the survival was inactive: 76%. The same measure for `COCC(C)NCc1ccc(SC)cc1` (configuration not stated): inactive: 113%.

Regarding `O=C(NCCc1ccc(Cl)cc1)c1c2c(nc3ccccc13)C(=O)N(C1CCCCC1)C2`, the survival is inactive: 81%. As to `O=C(NC1CCN(C(=O)Nc2ccccc2C(F)(F)F)CC1)c1ccco1`, the survival is inactive: 105%. The same measure for `COCCn1c(SCC(=O)Nc2cc(Cl)ccc2OC)nc2c([nH]c3ccccc32)c1=O`: inactive: 132%; for `COc1ccc(CNC(=O)CCNS(=O)(=O)c2ccc3c(c2)oc(=O)n3C)cc1`: inactive: 89%.

For `CCCCCCn1nnc2sc(-c3ccccc3)cc2c1=O`, the survival is inactive: 113%. The same measure for `CC1CCN(CC2CCN(C(=O)NCc3ccccc3)CC2)CC1`: inactive: 69%; for `CCC1CN(C(=O)Nc2ccccc2F)c2cc(C)ccc2O1` (configuration not stated): inactive: 77%.

As to `CCOc1ccc(-c2nc(Cn3c(=O)cc(C)c4c(C)nn(-c5ccccc5)c43)c(C)o2)cc1`, the survival was active: 14%. Turning to `Cc1ccccc1C(=O)Nc1cc(C)c(O)c(-c2nc3ccccc3o2)c1`, the survival is inactive: 75%. For `COc1cc(C)ccc1OCCSc1nc2ccc(NC(=O)c3ccco3)cc2s1` the value was inactive: 78%. The same measure for `CCN1c2ccccc2-c2nc(SCC(=O)Nc3cccc(C)c3C)ncc2S1(=O)=O`: inactive: 78%.

As to `CCn1cc(C(=O)N(C)Cc2ccccc2)c(=O)c2cc(S(=O)(=O)N3CCc4ccccc4C3)ccc21`, the survival is inactive: 72%. Consider `COc1ccc(C2CC(=O)c3cc(-c4nc(-c5cccc([N+](=O)[O-])c5)cs4)c(=O)n(-c4ccccc4)c3C2)cc1` (configuration not stated), for which the survival is inactive: 72%. The same measure for `O=C(NCCc1ccccc1)c1ccc2c(c1)N(Cc1ccc(Cl)cc1)C(=O)CS2`: inactive: 175%; for `Cc1nn(C)c(C)c1S(=O)(=O)N(CC(=O)NCCc1ccccc1)c1ccc(C(C)C)cc1`: inactive: 86%. The same measure for `COc1cccc(C(=O)NCC2OCCc3ccccc32)c1` (configuration not stated): inactive: 70%; for `CCc1ccc(NC(=O)CSc2ccnc(=O)[nH]2)cc1`: inactive: 83%; for `CCc1ccc(NC(=O)CN2C(=O)CSC2=O)cc1`: inactive: 98%.

Consider `Cc1ccc(C(=O)c2cn(Cc3cccc(Cl)c3)c3nc(C)ccc3c2=O)cc1`, for which the survival was inactive: 65%. On to `CCCCNC(=O)c1nn(C)c2c1CSc1ccccc1-2`, for which the survival is inactive: 79%. The same measure for `COc1ccc(NC(=O)c2ccco2)cc1NC(=O)COc1ccc(C)c(C)c1`: inactive: 84%. Regarding `C=CCN=C1SCC(=O)N1S(=O)(=O)c1ccc(C)cc1`, the survival was inactive: 113%. With `O=C(CSCc1ccc(F)cc1)N1CCN(c2ccccc2F)CC1`, the survival is inactive: 99%. The same measure for `Cc1cc2c(cc1S(=O)(=O)NCc1ccc(F)cc1)n(C)c(=O)c(=O)n2C`: inactive: 85%; for `Cc1ccc(-c2nn3c(-c4ccccc4C)nnc3c3ccccc23)cc1`: inactive: 51%; for `CC(C)c1nc2ccccn2c1NC1CCCCC1`: inactive: 101%. For `CCOC(=O)c1cc(-c2ccccc2)n(-c2cccc(C(=O)Nc3cccc(SC)c3)c2)c1C`, the survival is active: 0%.

In the case of `Cc1cn2c(=O)cc(COC(=O)c3ccc(NC(=O)COc4ccccc4C)cc3)nc2s1`, the survival was inactive: 76%. The same measure for `COc1ccc(CCC(=O)NCCc2csc(-c3ccc(F)cc3)n2)cc1`: inactive: 73%; for `CCOC(=O)c1oc2ccc(Br)cc2c1N`: inactive: 107%. As for `COc1ccc(OC)c(NC(=O)CSc2nc(=O)n(CCN(C)C)c3c2CCC3)c1`, the survival is inactive: 76%. Turning to `CCc1ccccc1NC(=O)N1CCOc2ccccc21`, the survival is inactive: 112%. For `CCCOc1ccc(C2C(=O)N(C3CCCCCC3)CC(=O)N2Cc2ccccc2OC)cc1OC` (configuration not stated) the value was inactive: 87%; for `O=C(Cn1ncc2c([nH]c3ccccc32)c1=O)NCCCN1CCN(c2ccc(F)cc2)CC1`, inactive: 85%. Turning to `CCCn1c2ccccc2c2cnn(CC(=O)Nc3cc(C)c(Cl)cc3OC)c(=O)c21`, the survival is inactive: 133%. For `CCc1ccc(-n2c(=O)c3c4c(sc3n(Cc3ccccc3C#N)c2=O)CCCC4)cc1` the value was inactive: 140%. The same measure for `CC1CCc2c(sc(NC(=O)Cc3ccccc3)c2C(=O)Nc2ccc(Cl)cc2)C1` (configuration not stated): inactive: 70%; for `COc1ccc(CCCc2nnc(SCC(=O)Nc3cccc(F)c3C)o2)cc1`: inactive: 75%; for `CCOC(=O)C1CCCN(C(=O)c2ccc3c(c2)sc2nc(-c4cccc(OC)c4)cn23)C1` (configuration not stated): inactive: 86%. The same measure for `CCOCCc1nn2c(=O)cc(COC(=O)c3ccccc3OC)nc2s1`: inactive: 78%. In the case of `COCCCn1c(SCc2cccc(Cl)c2)nc2c(sc3ccccc32)c1=O`, the survival is inactive: 133%. Take `Cc1ccccc1-c1noc(CSc2nc3ccccc3[nH]2)n1`: the survival is inactive: 59%.

Take `O=C(NCCc1ccccc1)c1cc(Nc2ccccc2)nc2ccccc12`: the survival was inactive: 67%. With `Cc1cc(=O)n2nc(N(C)CC(=O)NCc3ccccc3C)sc2n1`, the survival is inactive: 88%.

`CCCC(=O)Nc1cccc(OCc2cc(=O)n3cccc(C)c3n2)c1`: the survival is inactive: 72%.

In the case of `CCc1ccccc1Nc1nn2c(=O)c3ccc(C(=O)NCCC4=CCCCC4)cc3nc2s1`, the survival is inactive: 135%.

For the molecule `CCOCCc1nnc(NC(=O)C(=O)c2cc(C)n(-c3ccc(C)cc3C)c2C)s1`, the survival was inactive: 85%. On to `Cc1ccc(S(=O)(=O)N2C(=O)CCC2C(=O)N2CCCC2)cc1` (configuration not stated), for which the survival was inactive: 102%. Turning to `Cn1ncc(N)c1C(=O)N1CCOCC1`, the survival is inactive: 111%. For `CN(C)C(=O)CNCC1CCCO1` (configuration not stated) the value was inactive: 89%; for `COc1ccc(N(CC(=O)Nc2cccc(Cl)c2)S(=O)(=O)c2c(C)[nH]c(=O)[nH]c2=O)cc1`, inactive: 76%.

In the case of `CCOc1ccc(Nc2nc(-c3cccc(Cl)c3)c3c(n2)-c2ccccc2OC3)cc1`, the survival is inactive: 92%. For `COc1ccc2c(c1)c1c(c(=O)n(Cc3ccccc3)c(=O)n1CC(=O)Nc1ccccc1OC)n2C` the value was inactive: 71%. On to `CCn1c(C)c(C)c2cc(C(=O)NCC(C)c3ccccc3)ccc21` (configuration not stated), for which the survival is inactive: 99%.

For the molecule `O=C(c1ccc2c(Cl)c3c(nc2c1)CCCC3)N1CCN(c2ccc(Cl)cc2)CC1`, the survival is inactive: 90%. For `COc1ccc(N2CCN(CCCNC(=O)C3COc4ccccc4C3)CC2)cc1` (configuration not stated) the value was inactive: 129%.

Turning to `O=C(Nc1nc2c(F)cc(F)cc2s1)c1ccc(S(=O)(=O)N2CCc3ccccc32)cc1`, the survival is inactive: 82%. The same measure for `Cc1ccc(CNC(=O)CSc2nc3c(sc4ccccc43)c(=O)n2CCCC(=O)NCCO)cc1`: inactive: 87%.

For the molecule `CCc1ccccc1N=C1SCC(=O)N1C`, the survival was inactive: 92%.

Turning to `O=C(Nc1ccc(F)cc1)Nc1csc2c1CCCC2`, the survival was inactive: 12%. For `COC(=O)c1ccc(N2C(=O)Cc3cc(OC)c(OC)cc3C2c2ccc(F)cc2)cc1` (configuration not stated) the value was inactive: 78%; for `CCN1C(C(=O)c2ccccc2)=C(OC(=O)COc2ccc(C)cc2)c2ccccc2S1(=O)=O`, inactive: 85%; for `CCOc1ccc(-n2c(=O)c3c4c(sc3n(CC(=O)NC(C)CC)c2=O)CCCCC4)cc1` (configuration not stated), inactive: 91%.

As for `Cc1c(CCNC(=O)c2c(F)cccc2F)sc2nc(-c3ccc(F)cc3)nn12`, the survival was inactive: 127%. For `CCOc1ccc(CCn2c3c(c(=O)[nH]c2=O)C(NC(=O)c2cccc(F)c2)(C(F)(F)F)C(=O)N3)cc1OCC` (configuration not stated) the value was inactive: 91%; for `O=C(NCc1cccnc1)c1cccc(C(=O)NCc2cccnc2)c1`, inactive: 110%.

In the case of `COc1cc(-c2nc3sccn3c2Nc2c(C)cccc2C)ccc1O`, the survival is inactive: 108%. Consider `Cc1nc2c3cc(F)ccc3n(C)c2s1`, for which the survival is inactive: 105%.

With `Cn1ncc2c(N3CCN(c4ccc(F)cc4)CC3)ncnc21`, the survival was inactive: 73%. The same measure for `O=C(Cc1ccc(-c2ccccc2)cc1)NCCS(=O)(=O)N1CCN(c2ccc(F)cc2)CC1`: inactive: 73%; for `CC(=O)N1CCCc2ccc(NS(=O)(=O)c3cccc(Cl)c3)cc21`: inactive: 74%. For `CCn1c(C(=O)NCCc2ccc(S(N)(=O)=O)cc2)cc2sc(Cl)cc21` the value was inactive: 88%; for `O=C1Cc2cc(S(=O)(=O)N3CCN(c4cccc(Cl)c4)CC3)ccc2N1`, inactive: 90%; for `CC(=O)N1CCCC1c1nc2ccccc2n1Cc1ccccc1Cl` (configuration not stated), inactive: 86%. For the molecule `CCC1CN(C(=O)N2CCC(C(=O)NCCc3ccc(OC)cc3OC)CC2)c2cc(C)ccc2O1` (configuration not stated), the survival was inactive: 118%. `Cc1cccc(OCc2nc(CC(=O)Nc3ccc(Cl)cc3)cs2)c1`: the survival was inactive: 92%.

`Cc1cc(Nc2ccc(Br)cc2)nc(C)n1`: the survival is inactive: 84%. Consider `Cc1cccc(C)c1-n1ncc(C(=O)NCCCN2CCC(C)CC2)c1C1CCN(C(=O)OC(C)(C)C)CC1`, for which the survival was inactive: 63%.
